Laboratory results from article PMC5775257.
Results are given in words; binding and its absence hold for the method and conditions named. Binding seen in cells or lysates may run through a third protein. Some binding calls cover weakened binding; strength is not graded here.

Target: T1, endogenous NUFIP2 (HEK293T cells) (human (endogenous in HEK293T)) (UniProt Q7Z417)
T1 sequence: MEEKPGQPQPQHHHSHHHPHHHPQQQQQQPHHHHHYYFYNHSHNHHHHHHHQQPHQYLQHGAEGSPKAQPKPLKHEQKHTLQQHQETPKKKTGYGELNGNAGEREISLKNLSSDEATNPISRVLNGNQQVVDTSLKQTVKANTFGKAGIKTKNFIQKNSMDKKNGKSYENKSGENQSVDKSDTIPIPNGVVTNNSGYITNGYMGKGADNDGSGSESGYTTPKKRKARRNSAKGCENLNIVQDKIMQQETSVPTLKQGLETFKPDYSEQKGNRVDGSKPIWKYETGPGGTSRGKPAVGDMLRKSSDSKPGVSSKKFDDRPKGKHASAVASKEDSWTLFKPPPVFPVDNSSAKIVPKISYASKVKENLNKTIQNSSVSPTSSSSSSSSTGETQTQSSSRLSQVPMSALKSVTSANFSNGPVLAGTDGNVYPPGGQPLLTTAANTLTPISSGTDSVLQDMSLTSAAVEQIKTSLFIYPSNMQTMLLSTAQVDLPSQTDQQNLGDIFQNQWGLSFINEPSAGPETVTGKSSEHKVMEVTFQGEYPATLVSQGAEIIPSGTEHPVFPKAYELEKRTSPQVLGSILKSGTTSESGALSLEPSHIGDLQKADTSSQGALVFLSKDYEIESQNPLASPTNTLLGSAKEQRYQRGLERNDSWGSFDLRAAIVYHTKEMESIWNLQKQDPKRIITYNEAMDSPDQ
Experiment: co-IP; anti-Nufip2 (23G8) on Protein G Dynabeads; endogenous NUFIP2 from lysates of HEK293T cells transfected with Roquin-1 with or without FLAG-Fmrp; immunoblot

- binding: binds
B1: Roquin-1 (transfected, HEK293T) (protein, UniProt Q4VGL6 1-1130)
chain: MPVQAPQWTDFLSCPICTQTFDETIRKPISLGCGHTVCKMCLNKLHRKACPFDQTTINTDIELLPVNSALLQLVGAQIPEQQPITLCSGVEDTKHYEEAKKCVEELALYLKPLSSARGVGLNSTTQSVLSRPMQRKLVTLVHCQLVEEEGRIRAMRAARSLGERTVTELILQHQNPQQLSSNLWAAVRARGCQFLGPAMQEEALKLVLLALEDGSALSRKVLVLFVVQRLEPRFPQASKTSIGHVVQLLYRASCFKVTKRDEDSSLMQLKEEFRTYEALRREHDSQIVQIAMEAGLRIAPDQWSSLLYGDQSHKSHMQSIIDKLQTPASFAQSVQELTIALQRTGDPANLNRLRPHLELLANIDPSPDAPPPTWEQLENGLVAVRTVVHGLVDYIQNHSKKGADQQQPPQHSKYKTYMCRDMKQRGGCPRGASCTFAHSQEELEKFRKMNKRLVPRRPLSASLGQLNEVGLPSAPILSDESAVDLSNRKPPALPNGIASSGSTVTQLIPRGTDPSFDSSLKPVKLDHLSSSAPGSPPDLLESAPKSISALPVNPHPVPPRGPTDLPPMPVTKPIQMVPRGSQLYPAQQADVYYQDPRGSAPAFETAPYQQGMYYTPPPCVSRFVRPPPSAPEPGPPYLDHYSPYLQDRVINSQYGTQPQQYPPMYPAHYDGRRVYPAQSYTREEMFRESPIPIDIPSAAVPSYVPESRERYQQVEGYYPVAPHPAQIRPSYPRDPPYSRLPPPQPHPSLDELHRRRKEIMAQLEERKVISPPPFAPSPTLPPAFHPEEFLDEDLKVAGKYKANDYSQYSPWSCDTIGSYIGTKDAKPKDVVAAGSVEMMNVESKGTREQRLDLQRRAVETSDDDLIPFGDRPTVSRFGAISRTSKTLYQGAGPLQAIAPQGAPTKSINISDYSAYGAHGGWGDSPYSPHANIPPQGHFIEREKMSMAEVASHGKPLLSAEREQLRLELQQLNHQISQQTQLRGLEAVSNRLVLQREVNTLASQPQPPQLPPKWPGMISSEQLSLELHQVEREIGKRTRELSMENQCSVDMKSKLGTSKQAENGQPEPQNKIRTEDLTLTFSDVPNGSALTQENLSLLSNKTSSLNLSEDSEGGGDNNDSQRSGVVSNSAP
